# Data reported in the supplement of paper PMC8728848.
# This is one part of the list.
# Columns and labels:
# Assay in all cases: glycan array binding signal (z-score within array); higher = stronger binding
# Settings in all cases: glycan notation: IUPAC condensed, linker removed
# [1] = biological target: Neu5Ac(a2-3)Gal(b1-3)GalNAc(b1-4)[Neu5Ac(a2-8)Neu5Ac(a2-3)]Gal(b1-4)Glc
# How it was run: (§1)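 Glycan array data were curated from 3228 arrays in the Consortium for Functional Glycomics database and kept only where the protein sequence was available. Glycan names were converted to IUPAC-condensed notation, and columns mapping to the same glycan were averaged. The binding signal is a within-array Z-score, averaged across arrays of the same protein sequence at different concentrations or buffers and across linkers. Negative Z-scores can be read as non-binding.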
# [2] = biological target: Neu5Ac(a2-3)Gal(b1-3)GalNAc6S
# How it was run: as §1
# [3] = biological target: Neu5Ac(a2-3)Gal(b1-3)GlcNAc
# How it was run: as §1
# [4] = biological target: Neu5Ac(a2-3)Gal(b1-3)GlcNAc(b1-2)Man(a1-3)[Neu5Ac(a2-3)Gal(b1-3)GlcNAc(b1-2)Man(a1-6)]Man(b1-4)GlcNAc(b1-4)GlcNAc
# How it was run: as §1
# [5] = biological target: Neu5Ac(a2-3)Gal(b1-3)GlcNAc(b1-3)Gal(b1-3)GlcNAc
# How it was run: as §1
# [6] = biological target: Neu5Ac(a2-3)Gal(b1-3)GlcNAc(b1-3)Gal(b1-4)GlcNAc
# How it was run: as §1
# [7] = biological target: Neu5Ac(a2-3)Gal(b1-3)GlcNAc(b1-3)GalNAc
# How it was run: as §1
# [8] = biological target: Neu5Ac(a2-3)Gal(b1-3)GlcNAc6S
# How it was run: as §1
# [9] = biological target: Neu5Ac(a2-3)Gal(b1-3)[Fuc(a1-4)]GlcNAc
# How it was run: as §1
# [10] = biological target: Neu5Ac(a2-3)Gal(b1-3)[Fuc(a1-4)]GlcNAc(b1-3)Gal(b1-3)[Fuc(a1-4)]GlcNAc
# How it was run: as §1
# [11] = biological target: Neu5Ac(a2-3)Gal(b1-3)[Fuc(a1-4)]GlcNAc(b1-3)Gal(b1-4)[Fuc(a1-3)]GlcNAc
# How it was run: as §1
# [12] = biological target: Neu5Ac(a2-3)Gal(b1-3)[Neu5Ac(a2-3)Gal(b1-4)]GlcNAc
# How it was run: as §1
# [13] = biological target: Neu5Ac(a2-3)Gal(b1-3)[Neu5Ac(a2-6)]GalNAc
# How it was run: as §1
# Neu5Ac(a2-3)Gal(b1-4)Glc = biological target: Neu5Ac(a2-3)Gal(b1-4)Glc
# How it was run: as §1
# [14] = biological target: Neu5Ac(a2-3)Gal(b1-4)GlcNAc
# How it was run: as §1
# [15] = biological target: Neu5Ac(a2-3)Gal(b1-4)GlcNAc(b1-2)Man(a1-3)[GlcNAc(b1-2)Man(b1-4)GlcNAc(b1-2)Man(a1-6)]Man(b1-4)GlcNAc(b1-4)GlcNAc
# How it was run: as §1
# [16] = biological target: Neu5Ac(a2-3)Gal(b1-4)GlcNAc(b1-2)Man(a1-3)[Neu5Ac(a2-6)Gal(b1-4)GlcNAc(b1-2)Man(a1-6)]Man(b1-4)GlcNAc(b1-4)GlcNAc
# How it was run: as §1
# [17] = biological target: Neu5Ac(a2-3)Gal(b1-4)GlcNAc(b1-3)Gal
# How it was run: as §1
# [18] = biological target: Neu5Ac(a2-3)Gal(b1-4)GlcNAc(b1-3)Gal(b1-3)GlcNAc
# How it was run: as §1
# [19] = biological target: Neu5Ac(a2-3)Gal(b1-4)GlcNAc(b1-3)Gal(b1-4)GlcNAc
# How it was run: as §1
# [20] = biological target: Neu5Ac(a2-3)Gal(b1-4)GlcNAc(b1-3)Gal(b1-4)GlcNAc(b1-3)Gal(b1-4)GlcNAc
# How it was run: as §1
# [21] = biological target: Neu5Ac(a2-3)Gal(b1-4)GlcNAc(b1-3)Gal(b1-4)[Fuc(a1-3)]GlcNAc
# How it was run: as §1
# [22] = biological target: Neu5Ac(a2-3)Gal(b1-4)GlcNAc(b1-3)GalNAc
# How it was run: as §1
# [23] = biological target: Neu5Ac(a2-3)Gal(b1-4)GlcNAc(b1-6)[Gal(b1-3)]GalNAc
# How it was run: as §1
# [24] = biological target: Neu5Ac(a2-3)Gal(b1-4)GlcNAc(b1-6)[Neu5Ac(a2-3)Gal(b1-3)]GalNAc
# How it was run: as §1
# [25] = biological target: Neu5Ac(a2-3)Gal(b1-4)GlcNAc6S
# How it was run: as §1
# [26] = biological target: Neu5Ac(a2-3)Gal(b1-4)[Fuc(a1-3)]GlcNAc
# How it was run: as §1
# [27] = biological target: Neu5Ac(a2-3)Gal(b1-4)[Fuc(a1-3)]GlcNAc(b1-3)Gal
# How it was run: as §1
# [28] = biological target: Neu5Ac(a2-3)Gal(b1-4)[Fuc(a1-3)]GlcNAc(b1-3)Gal(b1-4)GlcNAc
# How it was run: as §1
# [29] = biological target: Neu5Ac(a2-3)Gal(b1-4)[Fuc(a1-3)]GlcNAc(b1-3)Gal(b1-4)[Fuc(a1-3)]GlcNAc(b1-3)Gal(b1-4)[Fuc(a1-3)]GlcNAc
# How it was run: as §1
# [30] = biological target: Neu5Ac(a2-3)Gal(b1-4)[Fuc(a1-3)]GlcNAc(b1-3)GalNAc
# How it was run: as §1
# [31] = biological target: Neu5Ac(a2-3)Gal(b1-4)[Fuc(a1-3)]GlcNAc(b1-6)[Gal(b1-3)]GalNAc
# How it was run: as §1
# [32] = biological target: Neu5Ac(a2-3)Gal(b1-4)[Fuc(a1-3)]GlcNAc(b1-6)[Neu5Ac(a2-3)Gal(b1-3)]GalNAc
# How it was run: as §1
# [33] = biological target: Neu5Ac(a2-3)Gal(b1-4)[Fuc(a1-3)]GlcNAc6S
# How it was run: as §1
# [34] = biological target: Neu5Ac(a2-3)Gal6S(b1-4)GlcNAc
# How it was run: as §1
# [35] = biological target: Neu5Ac(a2-3)Gal6S(b1-4)[Fuc(a1-3)]GlcNAc
# How it was run: as §1
# Neu5Ac(a2-3)GalNAc = biological target: Neu5Ac(a2-3)GalNAc
# How it was run: as §1
# [36] = biological target: Neu5Ac(a2-3)GalNAc(b1-4)GlcNAc
# How it was run: as §1
# [37] = biological target: Neu5Ac(a2-3)[GalNAc(b1-4)]Gal(b1-4)Glc
# How it was run: as §1
# [38] = biological target: Neu5Ac(a2-3)[GalNAc(b1-4)]Gal(b1-4)GlcNAc
# How it was run: as §1
# [39] = biological target: Neu5Ac(a2-3)[GalNAc(b1-4)]Gal(b1-4)GlcNAc(b1-3)GalNAc
# How it was run: as §1
# [40] = biological target: Neu5Ac(a2-3)[Neu5Ac(a2-6)]GalNAc
# How it was run: as §1
# Neu5Ac(a2-6)Gal = biological target: Neu5Ac(a2-6)Gal
# How it was run: as §1
binder,measurement,setting,value
Gal 3 (Canis lupus) (protein) MADSFSLNDALSGSGNPNPQGWPGPWGNQPAGAGGYPGASYPGAYPGQAPPGGYPGQAPPGGYPGQAPPGGYPGQAPPGGYPGQAPPGGYPGQAPPGTYPGPTAPAYPGPTAPGTQPGQPSGPGAYPPPGQPSAPGAYPAAGPFGIPAGPLTVPYDLPLPGGVKPRMLITILGTVRPSANRLALDFKRGNDVAFHFNPRFNEDNKRVIVCNTKLDNIWGKEERQAAFPFESGKPFKIQVLVESDHFKVAVNDAHLLQYNHRMKNLPEISKLGISGDIDLTSASYAMI,glycan array binding signal (z-score),[1],-0.133
same,glycan array binding signal (z-score),[2],-0.27
same,glycan array binding signal (z-score),[3],-0.175
same,glycan array binding signal (z-score),[4],-0.199
same,glycan array binding signal (z-score),[5],0.657
same,glycan array binding signal (z-score),[6],0.787
same,glycan array binding signal (z-score),[7],-0.142
same,glycan array binding signal (z-score),[8],-0.252
same,glycan array binding signal (z-score),[9],-0.266
same,glycan array binding signal (z-score),[10],-0.23
same,glycan array binding signal (z-score),[11],-0.244
same,glycan array binding signal (z-score),[12],-0.256
same,glycan array binding signal (z-score),[13],-0.204
same,glycan array binding signal (z-score),Neu5Ac(a2-3)Gal(b1-4)Glc,-0.247
same,glycan array binding signal (z-score),[14],-0.162
same,glycan array binding signal (z-score),[15],0.428
same,glycan array binding signal (z-score),[16],0.264
same,glycan array binding signal (z-score),[17],-0.155
same,glycan array binding signal (z-score),[18],0.001
same,glycan array binding signal (z-score),[19],0.679
same,glycan array binding signal (z-score),[20],1.2
same,glycan array binding signal (z-score),[21],-0.247
same,glycan array binding signal (z-score),[22],-0.205
same,glycan array binding signal (z-score),[23],-0.247
same,glycan array binding signal (z-score),[24],-0.233
same,glycan array binding signal (z-score),[25],0.203
same,glycan array binding signal (z-score),[26],-0.252
same,glycan array binding signal (z-score),[27],-0.265
same,glycan array binding signal (z-score),[28],-0.137
same,glycan array binding signal (z-score),[29],-0.252
same,glycan array binding signal (z-score),[30],-0.103
same,glycan array binding signal (z-score),[31],-0.16
same,glycan array binding signal (z-score),[32],-0.209
same,glycan array binding signal (z-score),[33],-0.258
same,glycan array binding signal (z-score),[34],-0.268
same,glycan array binding signal (z-score),[35],-0.259
same,glycan array binding signal (z-score),Neu5Ac(a2-3)GalNAc,-0.269
same,glycan array binding signal (z-score),[36],-0.195
same,glycan array binding signal (z-score),[37],-0.259
same,glycan array binding signal (z-score),[38],-0.251
same,glycan array binding signal (z-score),[39],-0.26
same,glycan array binding signal (z-score),[40],-0.261
same,glycan array binding signal (z-score),Neu5Ac(a2-6)Gal,-0.253
